# Experimental data reported in PubChem BioAssay AID493131 (Broad Institute, 2011).
# Hit rate of the full screen: of about 340,000 compounds, about 3,300 (0.97%) were called active. Inconclusive results, whose numbers are uncertain, are shown with a selection of clear calls.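 How the source made its calls: active means mean activation above about 17%, with every replicate also reaching it (limit read from the data, passing the limit was not always enough); inconclusive means only one of the two conditions met; inactive means the rest.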
# Target: Protein FosB (Mus musculus) (UniProt P13346)
# Assay: enhancers of mouse delta FosB DNA binding – biochemical, fluorescence polarization, TAMRA-CDK5 oligo, single point, primary screen (AID 493131);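 further: fluorescence polarization rise as delta FosB binds a TAMRA Cdk5 AP-1 oligo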
# Conditions: purified delta FosB, at 25 µM, stronger effect = higher value, percent of positive-control signal above neutral wells
# Chain of UniProt P13346 (P13346 whole entry, looked up): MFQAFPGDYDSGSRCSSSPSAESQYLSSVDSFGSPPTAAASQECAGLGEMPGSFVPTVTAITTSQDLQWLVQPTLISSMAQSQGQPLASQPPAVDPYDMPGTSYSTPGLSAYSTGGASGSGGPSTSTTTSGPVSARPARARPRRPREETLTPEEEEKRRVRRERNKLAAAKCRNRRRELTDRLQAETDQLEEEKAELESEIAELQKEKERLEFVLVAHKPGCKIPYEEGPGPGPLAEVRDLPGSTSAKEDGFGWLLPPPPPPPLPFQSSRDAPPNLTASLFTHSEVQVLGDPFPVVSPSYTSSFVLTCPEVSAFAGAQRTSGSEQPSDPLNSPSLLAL
row,Compound,activation
1,O=C(Nc1ccc2c(c1)OCCO2)c1cc(-c2ccccn2)nc2ccc(Br)cc12,inconclusive: 24.5%
2,CCOC(=O)c1c(NC(=O)C2CC2)sc2c1CC(C)(C)OC2,inactive: -2.28%
3,Cc1cc(C)cc(NC(=O)C2CCCN(c3ncccn3)C2)c1 (stereo unspecified),inactive: 1.97%
4,CCc1ccc(NC(=O)[C@H](Cc2c[nH]c3ccccc23)NC(=O)[C@@H]2Cc3ccccc3CN2)cc1,inconclusive: 32.6%
5,Cc1ccc(OCc2cc(C(=O)N3CCCC3)no2)cn1,inactive: -9.03%
6,Cc1ccc(Cn2c(C(C)Nc3nc(-c4ccc(F)cc4)cs3)nc3cc(C(=O)NCCCO)ccc32)cc1 (stereo unspecified),inconclusive: 23.4%
7,COc1ccc(NC(=O)CSc2nc(C3CC3)nc3ccccc23)cc1,inconclusive: 16.8%
8,O=C(CNC(=O)c1nn(Cc2ccccc2)c(=O)c2ccccc12)Nc1ccc(F)c(F)c1F,inconclusive: 27.2%
9,COc1ccccc1-n1cnc2c(c1=O)c1nc3ccccc3nc1n2-c1ccc(C)c(C)c1,inconclusive: 27.2%
10,CCCSc1nc2c(cnn2-c2ccc(C)cc2)c(=O)[nH]1,inconclusive: 16.1%
11,CC(C)C(NC(=O)COc1ccc2ccccc2c1)C(=O)N/N=C/C=C/c1ccccc1 (stereo unspecified),inconclusive: 26.1%
12,CN(C)CCCN(C(=O)c1ccc(S(=O)(=O)N(C)Cc2ccccc2)cc1)c1nc2cc3c(cc2s1)OCO3,inconclusive: 25.9%
13,CCCn1c(N/N=C\C=C\c2ccccc2)nc2c1c(=O)[nH]c(=O)n2C,inconclusive: 20.7%
14,C#CCOCCOCCOCCNc1nc(N2CCN(C(=O)[C@H]([C@@H](C)CC)n3cc([C@@H](N)Cc4ccc(O)cc4)nn3)CC2)nc(N2CCN(C(=O)[C@H]([C@@H](C)CC)n3cc([C@@H](N)CC(C)C)nn3)CC2)n1,inconclusive: 16.4%
15,CCOc1ccc(OCCC(=O)NNC(=O)c2cc(OC)c(OC)c(OC)c2)cc1,inactive: 1.26%
16,COc1ccccc1NC(=O)c1ccccc1NC(=O)c1ccccn1,inconclusive: 26.1%
17,Cc1ccc(/C=N/n2c(-c3ccc(Cl)cc3)n[nH]c2=S)s1,inconclusive: 16.3%
18,COC(=O)c1ccc(N(C(=O)c2ccco2)C(C(=O)NC2CCCC2)c2ccco2)cc1 (stereo unspecified),inactive: -14%
19,CC(=O)C1=C(c2ccccc2)OC(N)=C(C#N)C1c1ccccc1F (stereo unspecified),inactive: -0.344%
20,Cc1cc(C)cc(NC(=O)Cn2nnc(C(=O)NCCc3ccccc3)c2N)c1,active: 82.9%
21,CC(C)(Cc1ccc(O)cc1)NC(=O)CC(=O)N/N=C/c1ccc(Cl)cc1,inconclusive: 16.5%

row,Compound,activation
1,COc1ccc(Nc2nc(N3CCCC3)c3ccccc3n2)cc1,active: 59.1%
2,Cc1cc(OCC(=O)NCCc2ccc(Cl)cc2)c2c(C)cc(=O)oc2c1,inconclusive: 18.8%
3,CC(C)CC(=O)Nc1ccc(C(=O)NNC(=O)C(c2ccccc2)c2ccccc2)cc1,inconclusive: 17.6%
4,CCn1nc(C)c(NC(=O)/C=C/c2ccc(OC)c(COc3ccc(Cl)cc3Br)c2)c1C,active: 207%
5,CCCc1cc(=O)oc2cc(OCC(=O)Nc3cc(C)on3)ccc12,inconclusive: 16.9%
6,COc1ccc(CNC(=O)CCS(=O)(=O)Cc2cccc(Cl)c2)c(OC)c1,inconclusive: 19%
7,CCOC(=O)c1c(C)[nH]c(C(=O)OCC(=O)NCc2ccc(F)cc2)c1C,inconclusive: 22.1%
8,C[C@H](CO)N1C[C@H](C)[C@@H](CN(C)S(=O)(=O)c2ccc(F)cc2)Oc2c(NC(=O)Nc3ccc(C(F)(F)F)cc3)cccc2C1=O,inconclusive: 17.1%
9,O=C(CN1C(=O)NC2(CCc3ccccc3C2)C1=O)Nc1ccc(Cl)cc1F (stereo unspecified),active: 40.1%
10,O=C(Cn1nc(C(=O)O)c2ccccc2c1=O)NCCC1=CCCCC1,inconclusive: 19.9%
11,C(=N\Nc1nc2ccccc2[nH]1)/c1c[nH]c2ccccc12,inconclusive: 21.7%
12,O=C(Nc1ccc(S(=O)(=O)Nc2ncccn2)cc1)C1CC(=O)N(c2ccc(Cl)cc2)C1 (stereo unspecified),inactive: -4.25%
13,CCn1c(COc2ccc(C)cc2)nnc1SCC(=O)Nc1ccc2c(c1)OCCO2,inactive: -5.68%
14,Cc1ccc(N(C(=O)c2snc(C(N)=O)c2N)C(C(=O)NC2CCCC2)c2ccc(C)o2)cc1 (stereo unspecified),inconclusive: 24.7%
15,CN(C)C(CNC(=O)CCc1nc2cc(Cl)ccc2n(Cc2ccccc2)c1=O)c1ccccc1 (stereo unspecified),inconclusive: 21.9%
16,Cc1nc(CSc2ccc(Cl)cc2)cs1,inconclusive: 44.9%
17,NS(=O)(=O)c1ccc(NC(=O)CCCCC(=O)Nc2ccc(S(N)(=O)=O)cc2)cc1,active: 52.8%
18,CSc1nc(N)nc2c1ncn2CC(=O)Nc1ccc(C)c(C)c1,inconclusive: 16.3%
19,CC(=O)Nc1ccc(NC(=O)C2CCC(CNS(=O)(=O)c3cccc4nsnc34)CC2)cc1 (stereo unspecified),inconclusive: 16.7%
20,CCc1cc2ccc(OC)cc2nc1SCC(=O)Nc1cc(C)on1,active: 111%
21,CCCCCC(=O)Nc1cc(S(=O)(=O)N2CCOCC2)ccc1N1CCN(C)CC1,inconclusive: 56.1%

row,Compound,activation
1,CCOc1ccc(-n2c(SCC(=O)N3CCc4ccccc43)nnc2-c2c[nH]c3ccccc23)cc1,active: 27.2%
2,Cc1cc2c(cc1C)C(c1cc(Br)ccc1F)CC(=O)N2 (stereo unspecified),active: 21.7%
3,COc1cccc(C(=O)Nc2nc(-c3ccc(S(=O)(=O)N4CCOCC4)cc3)cs2)c1,inconclusive: 16.3%
4,O=C(CSc1nc(-c2ccccc2)cc(=O)[nH]1)Nc1ccccc1F,inconclusive: 19.5%
5,COc1ccc(Br)cc1C(=O)Nc1ccc(NC(=O)c2ccco2)cc1,inactive: 0.0416%
6,N#C/C(=C\c1cn(CCOc2ccccc2F)c2ccccc12)C(=O)NCc1cccs1,inconclusive: 18.7%
7,COc1ccc2sc(N(CCN(C)C)C(=O)/C=C/c3cccs3)nc2c1,inconclusive: 17.9%
8,O=C(C1CCC(CNc2nc(=S)[nH]c3ccccc23)CC1)N1CCN(c2ccc(F)cc2)CC1 (stereo unspecified),active: 37.2%
9,Cc1c(C(=O)Nc2nnc(SCc3ccccc3Cl)s2)cccc1[N+](=O)[O-],inconclusive: 20.2%
10,C=CCc1cccc2cc(C(=O)Nc3ccc(NC(C)=O)cc3)c(=O)oc12,inconclusive: 17.8%
11,O=C(N/N=C/C=C\c1ccccc1[N+](=O)[O-])c1cc(-c2ccc3ccccc3c2)n[nH]1,active: 24.7%
12,COc1ccccc1N1CN(S(=O)(=O)c2ccc(C)cc2)c2nc3ccccc3nc21,inconclusive: 22.3%
13,O=c1c(Cc2ccc(Cl)cc2)c(O)ccn1Cc1cccc(Cl)c1,inconclusive: 18.1%
14,COc1ccc(N(CC(=O)NCC2CCCO2)S(=O)(=O)c2ccccc2)cc1OC (stereo unspecified),inactive: -2.97%
15,O=C(Nc1ccc(NC(=O)c2cccs2)cc1)c1ccc2c(c1)OCO2,inconclusive: 19.8%
16,CSc1ccc(C(=O)C2CCCN(C(=O)c3ccc4c(c3)OCO4)C2)cc1 (stereo unspecified),inactive: -9.72%
17,O=C(CSc1nnc2c(n1)[nH]c1ccc(S(=O)(=O)N3CCOCC3)cc12)Nc1ccc(F)c(F)c1,inconclusive: 20.3%
18,CCC(C)Nc1nc(-c2cccc(OC)c2O)nc2ccccc12 (stereo unspecified),inactive: -2.09%
19,CCN(CC)CCn1c2ccccc2c2cnc(N=CN(C)C)c(C#N)c21,active: 29.4%
20,CCc1cccc(CC)c1NC(=O)CN1C2CCCC1CC(NC(=O)Nc1cccc(OC)c1)C2 (stereo unspecified),inactive: 1.14%
21,Cc1ccc(CNC(=O)C2CCCN(c3nc4ccsc4c(=O)s3)C2)cc1 (stereo unspecified),inconclusive: 22.1%

row,Compound,activation
1,CC(C)(C)NC(=O)CN(C(=O)c1snc(C(=O)NC2CCCCC2)c1N)c1ccccc1F,inactive: 2.46%
2,COCCN(C(=O)C1CC(=O)N(Cc2ccc(C)cc2)C1)c1c(N)n(CC(C)C)c(=O)[nH]c1=O (stereo unspecified),inactive: -12%
3,COc1cccc(-c2nnn(CC(=O)Nc3ccc(C)cc3C)n2)c1OC,inconclusive: 18.9%
4,O=C(NC1CCN(Cc2ccccc2)CC1)c1cccc(S(=O)(=O)Nc2ccc(SC(F)F)cc2)c1,active: 25.9%
5,COc1cc(/C=C2/SC(=O)NC2=O)ccc1OC(=O)c1ccco1,active: 67.6%
6,C(=N\Nc1ccc2ccccc2n1)/c1ccc2c(c1)OCCO2,inconclusive: 16.7%
7,OC(c1cccc(Cl)c1)c1nccc2ccccc12 (stereo unspecified),inactive: 1.17%
8,CNC(=O)c1sccc1Oc1ccc(F)cc1[N+](=O)[O-],inconclusive: 21.3%
9,COc1cnc(-c2ccccn2)nc1Oc1ccc(F)cc1F,inactive: -19.3%
10,COc1ccc(OC)c(NC(=O)c2nc(S(=O)(=O)Cc3ccccc3)ncc2Cl)c1,inactive: -5.2%
11,O=c1[nH]c(Cc2cccc(C(F)(F)F)c2)nc2ccccc12,inconclusive: 25.7%
12,Cc1cccc(C)c1NC(=O)CSc1nc2ccccc2c(=O)[nH]1,inconclusive: 30.7%
13,O=S(=O)(c1ccc(Cl)cc1)N1CCCN(c2nc3ccc(Cl)cc3s2)CC1,inconclusive: 17.5%
14,CCN(CC)c1ccc(-c2sc(Nc3ccccc3)n[n+]2-c2ccc(F)cc2)cc1,active: 27.6%
15,C[C@@H]1CN([C@H](C)CO)C(=O)Cc2cc(NS(=O)(=O)c3cn(C)cn3)ccc2O[C@H]1CN(C)S(=O)(=O)c1ccc(Cl)cc1,inactive: -9.54%
16,Cc1cccc(NS(=O)(=O)c2ccc(C(=O)N3CCC3)cc2)c1C,inactive: -1.57%
17,CCOc1ccc(C(C(=O)NCC2CCCO2)N(Cc2cccs2)C(=O)c2snc(C(N)=O)c2N)cc1 (stereo unspecified),active: 20.5%
18,CNC(=O)c1ccc(Nc2nnc(-c3ccc(O)cc3)c3ccccc23)cc1,inconclusive: 17.1%
